Data published in PubChem BioAssay AID624417 (National Center for Advancing Translational Sciences (NCATS), 2012).
The campaign covered roughly 410,000 compounds. About 6,400 (1.6%) were called active. The shares of active, inactive and inconclusive entries below differ from those in the screen. The call rests on the fitted dose curve; in most records, active means well fitted inhibition curve with a large enough effect; inconclusive means small, poorly fitted or top-dose-only effect; inactive means no such curve, though single readings can be large or run the other way. A potency beside an inconclusive call is a rough fit, not a confirmed value.

Target: Glucagon-like peptide 1 receptor (Homo sapiens) (UniProt P43220)
Test: qHTS of GLP-1 Receptor Inverse Agonists (Inhibition Mode); further: nearly all actives have a fitted effect of over 55% in size
Settings: HEK293 GLP-1R CRE-luciferase, luminescence, 24 h, GLP-1R form is constitutively active; series mostly up to 38.3 µM
Outline: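 qHTS in 1536-well format: reporter HEK293 cells expressing constitutive GLP-1R activity in DMEM + 10% Nu serum, 24 hr with compounds at 37 deg C, luminescence read after 12 min with detection reagent.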
Potency means the concentration at half of the fitted maximal effect; tags describe the fitted curve by direction and shape.

UniProt P43220, sequence (P43220 whole entry, looked up): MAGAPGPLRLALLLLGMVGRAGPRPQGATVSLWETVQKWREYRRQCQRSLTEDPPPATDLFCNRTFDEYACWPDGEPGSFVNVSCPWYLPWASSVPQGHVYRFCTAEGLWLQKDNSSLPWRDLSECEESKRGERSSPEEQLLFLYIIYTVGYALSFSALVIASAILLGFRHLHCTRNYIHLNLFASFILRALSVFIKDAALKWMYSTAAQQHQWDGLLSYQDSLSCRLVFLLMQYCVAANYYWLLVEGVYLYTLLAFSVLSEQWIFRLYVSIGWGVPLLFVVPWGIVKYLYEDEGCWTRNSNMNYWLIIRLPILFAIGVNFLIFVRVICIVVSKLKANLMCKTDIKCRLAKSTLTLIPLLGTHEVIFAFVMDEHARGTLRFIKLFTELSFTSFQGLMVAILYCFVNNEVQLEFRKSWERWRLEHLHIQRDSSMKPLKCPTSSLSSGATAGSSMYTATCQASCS

Potency, inactive:
Cc1cccc(Nc2nnc(-c3ccc(C)c(S(=O)(=O)N4CCOCC4)c3)c3ccccc23)c1
CCc1c(C)sc(NC(=S)N2CC(C)OC(C)C2)c1C(=O)OC (stereo unspecified)
COc1ccc(NC(=O)CN(C)S(=O)(=O)c2ccc3nc(C)sc3c2)cc1Cl
COC(=O)c1sc2cccc(F)c2c1S(=O)(=O)NCc1ccccc1Cl
O=C(NCC(c1cccnc1)N1CCc2ccccc21)c1cccc(F)c1 (stereo unspecified)
CCN(CC)C(=O)c1sc2c(c1C)c(=O)n(Cc1ccccc1)c(=O)n2Cc1c(C)cc(C)cc1C
COCCn1c(C)cc(O)c(C(c2ccccc2Cl)N2CCN(c3ccccc3)CC2)c1=O (stereo unspecified)
COc1ccc(NC(=O)C2(c3ccc(NC(=O)c4ccc(OC(C)=O)cc4)cc3)CCCC2)cc1
CC(C)NC(=O)Nc1ccc2c(c1)C(=O)N([C@H](C)CO)C[C@H](C)[C@@H](CN(C)Cc1ccc3c(c1)OCO3)OCCCC[C@@H](C)O2
CCOc1ccc(-c2cc(CCCC(=O)NCCc3ccc(SC)cc3)no2)cc1

Potency, active:
CC(C)(C)c1ccc(C(=O)N2CCCC2c2cccs2)cc1 (stereo unspecified) 11.2 µM
COc1ccc2c(c1)CCc1c-2n[nH]c1C(=O)NCCC(C)C 7.94 µM
OC(COc1ccc2c(c1)CCC2)CN1CCN(c2cccc(Cl)c2)CC1 (stereo unspecified) 10 µM

Potency, inconclusive:
O=[N+]([O-])c1ccccc1SNc1ccccc1 28.2 µM [inhibitor, single point]
Cc1cccc(CCNC(=O)CCNS(=O)(=O)c2cc(Br)cnc2N)c1 10 µM [inhibitor, partial curve, poor fit]
Clc1ccc(OCCCn2cncn2)cc1Cl 0.501 µM [inhibitor, full curve, poor fit]
Cn1c(C(=O)NCc2ccccc2F)cc2cc(S(=O)(=O)N3CCCCC3)ccc21 28.2 µM [inhibitor, single point]
Cc1ccc(/C=C2\CCC3=C2OC(N)=C(C#N)C3c2ccc(C)cc2)cc1 (stereo unspecified) 11.2 µM [inhibitor, single point]
CN(C)c1nc(NC(C)(C)C)nc(SCC(=O)Nc2ccccc2)n1 28.2 µM [inhibitor, single point]
COc1ccc(NC(=O)Cc2coc3cc(C)c(C(C)C)cc23)cc1S(=O)(=O)N1CCOCC1 28.2 µM [inhibitor, single point]
COc1ccc(/C=N/NC(=O)c2ccn[nH]2)cc1COc1ccc([N+](=O)[O-])c(C)c1 28.2 µM [inhibitor, single point]
CCOc1ccc(S(=O)(=O)Nc2ccc3c(c2)CCCN3S(=O)(=O)c2ccc(C)cc2)cc1 15.8 µM [inhibitor, single point]
CCc1ccc(CN(C)Cc2nc(-c3cccc(Cl)c3)no2)nc1 20 µM [inhibitor, partial curve, poor fit]
CCCN(CCC)C(=S)NC1CC2C=CC1C2 (stereo unspecified) 12.6 µM [inhibitor, partial curve, poor fit]
CCCCN(CCCNC(=O)C1CCN(S(=O)(=O)N2CCOCC2)CC1)c1ccccc1 10 µM [inhibitor, partial curve, poor fit]
Cc1ccc(NS(=O)(=O)c2ccc3[nH]c4c(c3c2)CCCCCC4)cc1C 11.2 µM [inhibitor, partial curve, poor fit]
CCSc1nc(-c2ccc(OC)cc2)ccc1C#N 28.2 µM [inhibitor, single point]
O=C(c1cc(C(=O)N2CCN(c3ccc(F)cc3)CC2)cc([N+](=O)[O-])c1)N1CCN(c2ccc(F)cc2)CC1 17.8 µM [inhibitor, single point]
CC1(c2cccc(Br)c2)NC(=O)N(CC(=O)c2ccc3c(c2)OCCO3)C1=O (stereo unspecified) 31.6 µM [inhibitor, single point]
Cc1ccc(NC(=O)CSCC(=O)N2CCCc3ccccc32)cc1 10 µM [inhibitor, single point]
CC(C)c1nc(SCC(=O)Nc2ccc(N(C)C)cc2)c2ccccc2n1 31.6 µM [inhibitor, single point]
Cc1cccc(/C=C2\Sc3ccc(C(=O)N4CCCCC4)cc3N(C)C2=O)c1 12.6 µM [inhibitor, partial curve, poor fit]
Fc1cccc(NC(=S)N2CCn3cccc3C2c2cccnc2)c1 (stereo unspecified) 28.2 µM [inhibitor, single point]
Cc1cc2c(cc(C(=O)OC(C(=O)NCc3ccco3)C(C)C)n2C)o1 (stereo unspecified) 28.2 µM [inhibitor, single point]
O=C(Nc1ccccc1)Nc1cc([N+](=O)[O-])ccc1F 22.4 µM [inhibitor, single point]
CS(=O)(=O)N(CC(=O)NC1CCCCC1)c1cccc(Cl)c1 11.2 µM [inhibitor, single point]
Cc1ccc(-c2noc(CCC(=O)Nc3cccc(C#N)c3)n2)cc1 15.8 µM [inhibitor, partial curve, poor fit]
CC(=O)Nc1ccc(-c2csc(Nc3cccc(C)n3)n2)cc1 28.2 µM [inhibitor, single point]
CCCCN(C(=O)CCn1c(=O)oc2ccccc21)c1ccccc1 3.55 µM [inhibitor, partial curve, poor fit]
COc1ccc(-n2cc(CNCCCN3CCCC3=O)c(-c3ccccc3Cl)n2)cc1 10 µM [inhibitor, partial curve, poor fit]
Cc1cccc(C)c1C(O)c1ncc(-c2cccc(C(F)(F)F)c2)[nH]1 (stereo unspecified) 20 µM [inhibitor, single point]
CC1CCCCN1C(=O)c1cnn2c(C(F)(F)F)cc(-c3ccco3)nc12 (stereo unspecified) 15.8 µM [inhibitor, partial curve, poor fit]
COc1ccc(-c2nc3ccccc3c(=O)n2O)cc1 28.2 µM [inhibitor, single point]
CCC(Oc1ccccc1)C(=O)Nc1ccc(-c2nnc(-c3ccco3)o2)cc1 (stereo unspecified) 28.2 µM [inhibitor, single point]
C[C@H](CO)N1C[C@H](C)[C@@H](CN(C)Cc2ccc3c(c2)OCO3)Oc2c(NC(=O)Cc3ccccc3)cccc2C1=O 31.6 µM [inhibitor, single point]
CC(=O)Nc1sc2c(c1C(c1ccc(F)cc1)N1CCOCC1)CCCC2 (stereo unspecified) 28.2 µM [inhibitor, single point]
Cc1ccc(NC(=S)c2nc3ccccc3s2)cc1 2.24 µM [inhibitor, full curve, poor fit]
CCCCCN=C(N)N/N=C/c1c[nH]c2ccc(OC)cc12 28.2 µM [inhibitor, single point]
COc1ccc(NCc2nnc(SCc3ccc(Cl)cc3)n2-c2ccccc2)cc1 10 µM [inhibitor, partial curve, poor fit]
CCCCn1c(C)cc(C)c(S(=O)(=O)c2ccccc2C)c1=O 10 µM [inhibitor, partial curve, poor fit]
Cc1ccc(S(=O)(=O)n2nccc2-c2c(-c3ccccc3)noc2C)cc1 7.08 µM [inhibitor, partial curve, poor fit]
CCN(CC)S(=O)(=O)c1ccc2oc(C(=O)N3CCc4ccccc4C3)c(C)c2c1 14.1 µM [inhibitor, partial curve, poor fit]
Cc1ccccc1C1C(C#N)=C2N=C(N)c3c(sc4c3CCCCC4)N2C2=C1C(=O)CCC2 (stereo unspecified) 12.6 µM [inhibitor, single point]
COc1ccc(/C=C/c2c(-c3ccccc3OC)sc3ccccc23)cc1OC 28.2 µM [inhibitor, single point]
O=S(=O)(c1cccc(NC(=S)Nc2ccc(Br)cc2Cl)c1)N1CCOCC1 14.1 µM [inhibitor, single point]
Cc1ccc(C(=O)OCC(=O)Nc2cccc(S(=O)(=O)NC3=NCCCCC3)c2)c(C)c1 22.4 µM [inhibitor, partial curve, poor fit]
O=C(C1=C[C@H](C2CCCCC2)C[C@H](OCc2ccc(CO)cc2)O1)N1CCN(Cc2ccc3c(c2)OCO3)CC1 28.2 µM [inhibitor, single point]
O=C(c1ccc(-c2cccc(C(F)(F)F)c2)o1)N1CCN(c2ccccc2O)CC1 28.2 µM [inhibitor, single point]
NNC(=O)/C(=N/Nc1ccccc1)S(=O)(=O)c1ccc(Cl)cc1 25.1 µM [inhibitor, single point]
CCOc1ccc2nc(NC(=O)CN3CCC(n4nnc5cc(C(F)(F)F)ccc54)CC3)sc2c1 3.55 µM [inhibitor, full curve, poor fit]
O=C(NC(=S)N1CCc2ccccc21)c1ccccc1 15.8 µM [inhibitor, partial curve, poor fit]
